Source: PubChem BioAssay (NCI)
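Step 1: Grow cells in 96-well plates. Step 2: Expose to compound for 48 hours at 5 concentrations. Step 3: Interpolate endpoints linearly; if unreached, use highest concentration. GI50 = concentration required for 50% inhibition of growth. TGI: total growth inhibition.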

Test system: NCI-H322M lung
Test: NCI anticancer screen, dose series, 48 h

Structure (SMILES) | GI50 | TGI
CCOP(=O)(OCC)OC[C@]12CC[C@@H](C)[C@H](C)C1C1=CC[C@@H]3[C@@]4(C)CCCNC(C)(C)[C@@H]4CC[C@@]3(C)[C@]1(C)CC2 (some centres undefined) | 1.58 µM | 2.96 µM
COc1ccc(-c2oc3cc(O)cc(O)c3c(=O)c2OC)cc1O | 12.1 µM | > 16.5 µM
